The other results are listed elsewhere or left out.

This assay concerns the target T1, MBP-FoxP1dN (Mus musculus, UniProt P58462 326-579).
T1 sequence: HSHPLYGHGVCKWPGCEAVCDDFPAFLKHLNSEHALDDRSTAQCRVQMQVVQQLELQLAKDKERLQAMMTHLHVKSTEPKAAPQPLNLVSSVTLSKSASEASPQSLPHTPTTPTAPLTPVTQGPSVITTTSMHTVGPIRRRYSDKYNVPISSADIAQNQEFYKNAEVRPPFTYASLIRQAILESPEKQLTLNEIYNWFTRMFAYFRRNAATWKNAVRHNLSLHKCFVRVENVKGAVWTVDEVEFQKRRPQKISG
The assay can be described thus: PD-seq (MBP pull-down with sequencing); 20 mM Tris-HCl pH 7.5, 100 mM NaCl, 1.5 mM MgCl2, 0.4 uM protein, 0.1 uM dsDNA library, 30 min, room temperature, amylose pull-down; high values mean tight binding. The settings on record: protein: recombinant; tags: His6-MBP; chain copies: 2; dsDNA, one strand shown. The procedure, abridged: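 E. coli-expressed mouse FoxP3 or FoxP1 fragment, N-terminus removed and tagged with His6-MBP, was used at 0.4 µM against 0.1 µM of a Klenow-filled degenerate double-stranded DNA library. After 30 min at room temperature in Tris pH 7.5 buffer with NaCl and MgCl2, complexes were pulled down on amylose resin and washed three times. Binding is pull-down over input reads-per-million enrichment from pooled replicates of the proteinase K-released, PCR-barcoded, Illumina-sequenced DNA.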
On to “GATGATTGTTCTCCCAGCTGATGAATTAGTAACCTCGAGTAAACAAATTTTCCTAATCTTTCTGTTCAAGCGCCATCTAC”, for which the binding signal was 1.03 RPM ratio (pull-down/input).

Consider “GATGATTGTTCTCCCAGCTGATGAATTTCTTCAGTCGAGTAAACAAATTTTCCTAATCTTTCTGTTCAAGCGCCATCTAC”, for which the binding signal was 0.88 RPM ratio (pull-down/input).

On to “GATGATTGTTCTCCCAGCTGATGAATTACAAAGATCGAGTAAACAAATTTTCCTAATCTTTCTGTTCAAGCGCCATCTAC”, for which the binding signal is 1.2 RPM ratio (pull-down/input).

For “GATGATTGTTCTCCCAGCTGATGAATTTAAAAACTCGAGTAAACAAATTTTCCTAATCTTTCTGTTCAAGCGCCATCTAC”, the binding signal is 0.881 RPM ratio (pull-down/input).

“GATGATTGTTCTCCCAGCTGATGAATTCATGAGATCGAGTAAACAAATTTTCCTAATCTTTCTGTTCAAGCGCCATCTAC”: the binding signal is 0.859 RPM ratio (pull-down/input).

As for “GATGATTGTTCTCCCAGCTGATGAATTTCTCTGCTCGAGTAAACAAATTTTCCTAATCTTTCTGTTCAAGCGCCATCTAC”, the binding signal is 0.812 RPM ratio (pull-down/input).

In the case of “GATGATTGTTCTCCCAGCTGATGAATTTCTCGGTTCGAGTAAACAAATTTTCCTAATCTTTCTGTTCAAGCGCCATCTAC”, the binding signal was 0.889 RPM ratio (pull-down/input).

As for “GATGATTGTTCTCCCAGCTGATGAATTTTTGTTCTCGAGTAAACAAATTTTCCTAATCTTTCTGTTCAAGCGCCATCTAC”, the binding signal is 0.963 RPM ratio (pull-down/input).

As to “GATGATTGTTCTCCCAGCTGATGAATTCAGAATATCGAGTAAACAAATTTTCCTAATCTTTCTGTTCAAGCGCCATCTAC”, the binding signal was 0.933 RPM ratio (pull-down/input).

With “GATGATTGTTCTCCCAGCTGATGAATTGTAAGCCTCGAGTAAACAAATTTTCCTAATCTTTCTGTTCAAGCGCCATCTAC”, the binding signal was 0.983 RPM ratio (pull-down/input).

For “GATGATTGTTCTCCCAGCTGATGAATTACTATCTTCGAGTAAACAAATTTTCCTAATCTTTCTGTTCAAGCGCCATCTAC”, the binding signal was 1.12 RPM ratio (pull-down/input).

With “GATGATTGTTCTCCCAGCTGATGAATTGTCGGCCTCGAGTAAACAAATTTTCCTAATCTTTCTGTTCAAGCGCCATCTAC”, the binding signal was 0.864 RPM ratio (pull-down/input).

With “GATGATTGTTCTCCCAGCTGATGAATTTCTATACTCGAGTAAACAAATTTTCCTAATCTTTCTGTTCAAGCGCCATCTAC”, the binding signal is 0.903 RPM ratio (pull-down/input).

Consider “GATGATTGTTCTCCCAGCTGATGAATTTAGGATCTCGAGTAAACAAATTTTCCTAATCTTTCTGTTCAAGCGCCATCTAC”, for which the binding signal was 0.911 RPM ratio (pull-down/input).

As for “GATGATTGTTCTCCCAGCTGATGAATTCACTTCCTCGAGTAAACAAATTTTCCTAATCTTTCTGTTCAAGCGCCATCTAC”, the binding signal was 0.808 RPM ratio (pull-down/input).

In the case of “GATGATTGTTCTCCCAGCTGATGAATTACGGGGGTCGAGTAAACAAATTTTCCTAATCTTTCTGTTCAAGCGCCATCTAC”, the binding signal was 0.863 RPM ratio (pull-down/input).

In the case of “GATGATTGTTCTCCCAGCTGATGAATTGAATAGATCGAGTAAACAAATTTTCCTAATCTTTCTGTTCAAGCGCCATCTAC”, the binding signal was 0.905 RPM ratio (pull-down/input).

On to “GATGATTGTTCTCCCAGCTGATGAATTAATCCTATCGAGTAAACAAATTTTCCTAATCTTTCTGTTCAAGCGCCATCTAC”, for which the binding signal is 0.93 RPM ratio (pull-down/input).

Turning to “GATGATTGTTCTCCCAGCTGATGAATTGCCTAATTCGAGTAAACAAATTTTCCTAATCTTTCTGTTCAAGCGCCATCTAC”, the binding signal is 1.1 RPM ratio (pull-down/input).

For the sequence “GATGATTGTTCTCCCAGCTGATGAATTGTTTACGTCGAGTAAACAAATTTTCCTAATCTTTCTGTTCAAGCGCCATCTAC”, the binding signal is 2.79 RPM ratio (pull-down/input).

With “GATGATTGTTCTCCCAGCTGATGAATTTGGATTTTCGAGTAAACAAATTTTCCTAATCTTTCTGTTCAAGCGCCATCTAC”, the binding signal is 1.02 RPM ratio (pull-down/input).

Regarding “GATGATTGTTCTCCCAGCTGATGAATTTAATTCCTCGAGTAAACAAATTTTCCTAATCTTTCTGTTCAAGCGCCATCTAC”, the binding signal was 0.817 RPM ratio (pull-down/input).

As to “GATGATTGTTCTCCCAGCTGATGAATTCCCATGGTCGAGTAAACAAATTTTCCTAATCTTTCTGTTCAAGCGCCATCTAC”, the binding signal is 0.802 RPM ratio (pull-down/input).

As to “GATGATTGTTCTCCCAGCTGATGAATTACGCGGCTCGAGTAAACAAATTTTCCTAATCTTTCTGTTCAAGCGCCATCTAC”, the binding signal was 0.852 RPM ratio (pull-down/input).

Regarding “GATGATTGTTCTCCCAGCTGATGAATTATATGTGTCGAGTAAACAAATTTTCCTAATCTTTCTGTTCAAGCGCCATCTAC”, the binding signal was 1.21 RPM ratio (pull-down/input).

With “GATGATTGTTCTCCCAGCTGATGAATTTGTATGATCGAGTAAACAAATTTTCCTAATCTTTCTGTTCAAGCGCCATCTAC”, the binding signal is 1.21 RPM ratio (pull-down/input).

In the case of “GATGATTGTTCTCCCAGCTGATGAATTATACAACTCGAGTAAACAAATTTTCCTAATCTTTCTGTTCAAGCGCCATCTAC”, the binding signal was 1.33 RPM ratio (pull-down/input).

For “GATGATTGTTCTCCCAGCTGATGAATTACACTTATCGAGTAAACAAATTTTCCTAATCTTTCTGTTCAAGCGCCATCTAC”, the binding signal was 1.21 RPM ratio (pull-down/input).

Regarding “GATGATTGTTCTCCCAGCTGATGAATTAAGCGTTTCGAGTAAACAAATTTTCCTAATCTTTCTGTTCAAGCGCCATCTAC”, the binding signal is 0.989 RPM ratio (pull-down/input).

For the sequence “GATGATTGTTCTCCCAGCTGATGAATTATTTTTCTCGAGTAAACAAATTTTCCTAATCTTTCTGTTCAAGCGCCATCTAC”, the binding signal was 1.34 RPM ratio (pull-down/input).

Turning to “GATGATTGTTCTCCCAGCTGATGAATTAACGTCATCGAGTAAACAAATTTTCCTAATCTTTCTGTTCAAGCGCCATCTAC”, the binding signal was 1.15 RPM ratio (pull-down/input).

These data come from publication PMC12820563, “FoxP3 forms a head-to-head dimer in vivo and stabilizes its multimerization on adjacent microsatellites”.
